This is an account of results in a collection of fitness landscapes (doi:10.1126/science.1257360).

B1: PhoQ; a variant is named by its letters at X, in order, P23837 (parent)
chain: MKKLLRLFFPLSLRVRFLLATAAVVLVLSLAYGMVALIGYSVSFDKTTFRLLRGESNLFYTLAKWENNKLHVELPENIDKQSPTMTLIYDENGQLLWAQRDVPWLMKMIQPDWLKSNGFHEIEADVNDTSLLLSGDHSIQQQLQEVREDDDDAEMTHSVAVNVYPATSRMPKLTIVVVDTIPVELKSSYMVWSWFIYVLSANLLLVIPLLWVAAWWSLRPIEALAKEVRELEEHNRELLNPATTRELTSLVRNLNRLLKSERERYDKYRTTLTDLTHSLKTPLXXLQXXLRSLRSEKMSVSDAEPVMLEQISRISQQIGYYLHRASMRGGTLLSRELHPVAPLLDNLTSALNKVYQRKGVNISLDISPEISFVGEQNDFVEVMGNVLDNACKYCLEFVEISARQTDEHLYIVVEDDGPGIPLSKREVIFDRGQRVDTLRPGQGVGLAVAREITEQYEGKIVAGESMLGGARMEVIFGRQHSAPKDE

The list shows a part of the results.

In the test the parent is B1. Kind of test: enrichment ratio after two sorts for PhoP signalling (ratio (wild type AVST 3.29)); higher = more functional. As to conditions: with PhoP (E. coli).
Consider STSF, for which the enrichment ratio is 10.3.
Turning to ILYN, the enrichment ratio is ≤ 0.25.
The result for TGTG reads 9.33; that for DRGF, ≤ 0.25; that for TVEG, ≤ 0.25.
The result for VMCV reads ≤ 0.25; that for WALF, ≤ 0.25; that for DYGH, ≤ 0.25.
As for LHTY, the figure is ≤ 0.25; as for HSFM, ≤ 0.25; as for IARQ, ≤ 0.25.
Regarding TQVV, the enrichment ratio was determined as 4.23.
The result for RIGR reads ≤ 0.25; that for ERPL, ≤ 0.25; that for YDCY, ≤ 0.25.
With FGPQ, the enrichment ratio was ≤ 0.25.
The result for MSVP reads ≤ 0.25; that for VYKA, ≤ 0.25; that for HECA, ≤ 0.25.
Turning to YAVP, the enrichment ratio was ≤ 0.25.
Take MQFR: the enrichment ratio is ≤ 0.25.
Consider REPR, for which the enrichment ratio was ≤ 0.25.
The result for NCQK reads ≤ 0.25.
For the variant KKPS, the enrichment ratio was 1.58.
Turning to YNVQ, the enrichment ratio was ≤ 0.25.
Turning to DWIW, the enrichment ratio was ≤ 0.25.
With YRLN, the enrichment ratio was ≤ 0.25.
KVRR: the enrichment ratio was ≤ 0.25.
Turning to HWME, the enrichment ratio is ≤ 0.25.
For the variant LQAT, the enrichment ratio is ≤ 0.25.
As for EPMD, the figure is ≤ 0.25; as for IAVC, ≤ 0.25.
In the case of WKRM, the enrichment ratio was ≤ 0.25.
The result for IDPD reads ≤ 0.25; that for DKQI, ≤ 0.25; that for YGTM, ≤ 0.25.
Take HDCQ: the enrichment ratio is ≤ 0.25.
The result for ICRK reads ≤ 0.25.
MHTD: the enrichment ratio is ≤ 0.25.
On to SNWN, for which the enrichment ratio was ≤ 0.25.
With VFYR, the enrichment ratio is ≤ 0.25.
As for IIVN, the figure is ≤ 0.25; as for LYAH, ≤ 0.25.
As for MFYP, the enrichment ratio came out at 1.9.
For VGER, the enrichment ratio is ≤ 0.25.
YSIL: the enrichment ratio amounted to 1.87.
The result for SSLC reads 15.2.
As for QYAN, the figure is ≤ 0.25; as for PNIT, ≤ 0.25.
As for VECQ, the enrichment ratio stood at 8.23.
Take RAEI: the enrichment ratio was ≤ 0.25.
Turning to TMPQ, the enrichment ratio is ≤ 0.25.
On to HMVF, for which the enrichment ratio was ≤ 0.25.
As for FQKV, the figure is ≤ 0.25; as for FEKD, ≤ 0.25.
Take IHYW: the enrichment ratio is ≤ 0.25.
Turning to PFGK, the enrichment ratio was ≤ 0.25.
For QGRI, the enrichment ratio was ≤ 0.25.
The result for EYLT reads ≤ 0.25.
As for VDSN, the figure is ≤ 0.25; as for ITEP, ≤ 0.25.
On to MMWE, for which the enrichment ratio was ≤ 0.25.
On to GQTS, for which the enrichment ratio was ≤ 0.25.
Regarding QFFL, the enrichment ratio was ≤ 0.25.
On to DSEP, for which the enrichment ratio is ≤ 0.25.
As for IVSL, the figure is ≤ 0.25.
Take TEYY: the enrichment ratio was determined as 10.3.
The result for IRML reads ≤ 0.25.
Consider LIWY, for which the enrichment ratio is ≤ 0.25.
Take IFPY: the enrichment ratio was ≤ 0.25.
For the variant ILWI, the enrichment ratio is ≤ 0.25.
As to PFRK, the enrichment ratio was ≤ 0.25.
As to YFVK, the enrichment ratio is ≤ 0.25.
On to MSFC, for which the enrichment ratio was determined as 14.1.
As for AFLW, the enrichment ratio was ≤ 0.25.
For the variant VFVD, the enrichment ratio was ≤ 0.25.
Regarding VMVN, the enrichment ratio is ≤ 0.25.
With ESWG, the enrichment ratio is ≤ 0.25.
As for SALD, the enrichment ratio is 2.76.
As for HDDL, the enrichment ratio was ≤ 0.25.
With VAWM, the enrichment ratio was ≤ 0.25.
Take INCP: the enrichment ratio was ≤ 0.25.
As for MIFM, the figure is 15.8; as for VARW, ≤ 0.25; as for YYPM, ≤ 0.25.
Turning to MSPA, the enrichment ratio was ≤ 0.25.
With APIS, the enrichment ratio is ≤ 0.25.
As for MWNV, the enrichment ratio was ≤ 0.25.
The result for DWHM reads ≤ 0.25; that for ANPR, ≤ 0.25; that for TSGI, 12.8.
With LKAM, the enrichment ratio was ≤ 0.25.
In the case of YDCA, the enrichment ratio was ≤ 0.25.
The result for SDCE reads ≤ 0.25.
As for MHHG, the figure is ≤ 0.25.
Consider ITMN, for which the enrichment ratio is ≤ 0.25.
Take FRAD: the enrichment ratio is ≤ 0.25.
With PPVH, the enrichment ratio is ≤ 0.25.
Consider PCAT, for which the enrichment ratio is ≤ 0.25.
Regarding EGPD, the enrichment ratio is ≤ 0.25.
As for EQIT, the figure is ≤ 0.25; as for DWHN, ≤ 0.25.
Regarding VDCT, the enrichment ratio was ≤ 0.25.
In the case of MFTF, the enrichment ratio was 0.689.
As for AGSR, the enrichment ratio is ≤ 0.25.
In the case of PLGM, the enrichment ratio was ≤ 0.25.
Turning to CPIL, the enrichment ratio was ≤ 0.25.
For the variant IVKM, the enrichment ratio is ≤ 0.25.
As to DAVF, the enrichment ratio was ≤ 0.25.
QHYI: the enrichment ratio is ≤ 0.25.
Take NIMK: the enrichment ratio was ≤ 0.25.
As to KINK, the enrichment ratio is ≤ 0.25.
The result for RNHK reads ≤ 0.25.
As to ELTI, the enrichment ratio is ≤ 0.25.
The result for GFMG reads ≤ 0.25; that for WMVS, ≤ 0.25.
Turning to TACK, the enrichment ratio was determined as 11.6.
For the variant YDIQ, the enrichment ratio was ≤ 0.25.
With MEKP, the enrichment ratio is ≤ 0.25.
With SYWP, the enrichment ratio was ≤ 0.25.
Take MLPS: the enrichment ratio was ≤ 0.25.
As for VQKE, the enrichment ratio is ≤ 0.25.
MFSR: the enrichment ratio is ≤ 0.25.
As for WMDD, the figure is ≤ 0.25; as for YFQD, ≤ 0.25; as for DPAC, ≤ 0.25.
As for VPFD, the figure is ≤ 0.25; as for PKIP, ≤ 0.25.
With FRLI, the enrichment ratio was ≤ 0.25.
With KARR, the enrichment ratio is ≤ 0.25.
As for THMR, the figure is ≤ 0.25; as for MRET, ≤ 0.25.
On to PYEC, for which the enrichment ratio is ≤ 0.25.
As for QDCP, the enrichment ratio is ≤ 0.25.
As for NTRA, the figure is ≤ 0.25; as for IPNV, ≤ 0.25; as for RSYN, ≤ 0.25.
For KFRD, the enrichment ratio is ≤ 0.25.
For MTRG, the enrichment ratio was ≤ 0.25.
For the variant EQVR, the enrichment ratio was ≤ 0.25.
Take RTSL: the enrichment ratio was ≤ 0.25.
Turning to SLFW, the enrichment ratio is ≤ 0.25.
Consider ACFG, for which the enrichment ratio was ≤ 0.25.
With SGLI, the enrichment ratio was 16.2.
As for WPAH, the enrichment ratio is ≤ 0.25.
For PMHT, the enrichment ratio was ≤ 0.25.
For VPEA, the enrichment ratio was ≤ 0.25.
On to DHIF, for which the enrichment ratio is ≤ 0.25.
With YGLK, the enrichment ratio was ≤ 0.25.
Regarding SIVR, the enrichment ratio was 1.84.
As for DQPN, the enrichment ratio is ≤ 0.25.
For VMIS, the enrichment ratio was ≤ 0.25.
Turning to SLEL, the enrichment ratio was ≤ 0.25.
